# Hit rate of the full screen: of about 360,000 compounds, about 11,000 (3.1%) were called active. Inconclusive results, whose numbers are uncertain, are shown with a selection of clear calls. The call rests on the fitted dose curve; in most records, active means well fitted inhibition curve with a large enough effect; inconclusive means small, poorly fitted or top-dose-only effect; inactive means no such curve, though single readings can be large or run the other way. No potency is given beside an inconclusive call; the fits are too rough.
# Molecular target: Schistosoma mansoni thioredoxin glutathione reductase (TGR) (UniProt Q962Y6)
# Experiment: qHTS Assay for the Inhibitors of Schistosoma Mansoni Peroxiredoxins; further: nearly all actives have a fitted effect of over 60% in size
# Conditions: purified TGR, DTNB reduction, TNB absorbance 405 nm; activity change, negative = inhibition: at 114 µM (top of the series) unless noted
# In short: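 TGR 20 nM + NADPH 100 uM (dispensed conc.), cpd preinc 15 min RT; start with NADPH (500 uM addition) then DTNB (15 mM addition). Kinetic TNB absorbance, 405 nm filter. Four-parameter Hill fit across titration.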
# On the % scale 0 is the no-effect control and ±100 the full control effect; potency means the concentration at half of the fitted maximal effect; tags describe the fitted curve by direction and shape.
Compound,Potency,"activity change, negative = inhibition"
O=C(Nc1sc2c(c1C(=O)Nc1ccccc1)CCC2)c1ccc(Br)cc1,"inconclusive [inhibitor, partial curve]",–
COc1cc(CN2CCC(n3nccc3NC(=O)c3ccc4c(c3)OCO4)CC2)ccc1O,"inconclusive [inhibitor, partial curve]",–
CCN(CC)S(=O)(=O)c1ccc(N=Cc2c(O)n(-c3ccccc3)c(=O)[nH]c2=O)cc1,"inconclusive [inhibitor, full curve, poor fit]",–
CN1CC=C2C(C#N)=C(N)C(C#N)(C#N)C(c3cccc(Cl)c3Cl)C2C1 (configuration not stated),"inconclusive [inhibitor, partial curve]",–
O=C(CCn1c(=O)c2ccccc2n(CC(=O)NCCC2=CCCCC2)c1=O)NCc1ccco1,"inconclusive [inhibitor, partial curve]",–
CCCOc1ccc(C(=O)NCC(c2ccco2)N(C)C)cc1 (configuration not stated),"inconclusive [inhibitor, single point]",–
Cc1cc(F)ccc1S(=O)(=O)Nc1ccc(O)c(Sc2ncn[nH]2)c1,"inconclusive [inhibitor, partial curve]",–
Cc1c(NC(=O)C(C)(C)Oc2ccc(Cl)cc2)cccc1-c1nc2ccccc2o1,–,inactive: -4.02%
Cc1c(CCOC(=O)c2ccc([N+](=O)[O-])cc2)sc[n+]1CC(=O)c1ccccc1,"inconclusive [inhibitor, partial curve, poor fit]",–
CC(C(c1cccs1)c1c(N)n(C)c(=O)n(C)c1=O)[N+](=O)[O-] (configuration not stated),"inconclusive [inhibitor, partial curve]",–
Cc1noc(C)c1-c1nc(CS(=O)(=O)c2ccc(F)cc2)no1,–,inactive: -5.92%
Cc1ccc(-c2nc(CN(C)Cc3ccc4nccnc4c3)c(C)o2)s1,"inconclusive [inhibitor, full curve]",–
Cc1cc(=O)[nH]c(SCCOc2ccc(OC(C)C)cc2)n1,–,inactive: -0.729%
COC(=O)c1ccccc1NC(=O)c1nc(-c2ccc(Cl)cc2)n2c1CCCCC2,–,inactive: -2.85%
N#CC1=C(N)SC(N)=C(C#N)C1c1ccoc1,active: 5.01 µM,–
O=C(/C=C/c1ccco1)Oc1cccc2cccnc12,"inconclusive [inhibitor, partial curve]",–
CC1=C(SCCC#N)S/C(=C2\SC(C)=C(SCCC#N)S2)S1,"inconclusive [inhibitor, partial curve]",–
O=[N+]([O-])c1ccc(OCCO)c(P(=O)(c2ccccc2)c2ccccc2)c1,–,inactive: 6.89%
Cc1cc(C(=O)NC2CCCc3ccccc32)no1 (configuration not stated),"inconclusive [inhibitor, single point]",–
CSC1=C(C#N)C(c2ccc3c(c2)OCO3)C2=C(CCCC2=O)N1 (configuration not stated),"inconclusive [inhibitor, partial curve]",–
CCN1C(C(=O)c2ccccc2)=C(OC(=O)COc2ccccc2)c2ccccc2S1(=O)=O,active: 15.8 µM,–
CCOC(=O)c1ccccc1Nc1cc(C)nc2nc(-c3ccco3)nn12,active: 17.8 µM,–
CC(C)(C)NC(=S)NNC(=O)c1ccccc1Cl,–,inactive: 2.74%
Cc1nn(C)c(=O)n1-c1ccc(OCc2ccccc2)cc1,–,inactive: -7.92%

Compound,Potency,"activity change, negative = inhibition"
COc1ccc(CN(C(=O)CSc2nnc(-c3ccccc3C)o2)c2ccc(F)cc2)cc1,"inconclusive [inhibitor, partial curve]",–
O=C1NC(=O)C(=Cc2coc3ccc(O)cc3c2=O)C(=O)N1,"inconclusive [inhibitor, partial curve]",–
CSc1ccccc1NC(=O)c1cc(S(=O)(=O)N(C)C)ccc1N1CCCC1,–,inactive: -15.7%
O=C(CCl)N(Cc1cccc([N+](=O)[O-])c1)c1cccc(Cl)c1,active: 2.51 µM,–
CCN(CC)S(=O)(=O)c1ccc(C(=O)Nn2cnnc2)cc1,"inconclusive [inhibitor, single point]",–
CCCN1CCC(=O)N([C@H](CSc2ccc(C)cc2)Cc2ccccc2)CC1,"inconclusive [inhibitor, partial curve]",–
CCOC(=O)c1c(/N=C/c2cccc([N+](=O)[O-])c2O)sc2c1CCC2,"inconclusive [inhibitor, partial curve]",–
CC(=O)Nc1ccccc1NC(=O)C(F)(F)F,"inconclusive [inhibitor, single point]",–
O=C(Cn1c(=O)n(-c2ccc(F)cc2)c(=O)c2sc3ccccc3c21)NC1CCCCC1,–,inactive: 8.12%
Cn1c(N)c(C(=O)COC(=O)c2cc(-c3ccco3)nc3ccccc23)c(=O)n(Cc2ccccc2)c1=O,active: 8.91 µM,–
CCC(=O)N/C(N)=N/c1nc(C)c2cc(OC)ccc2n1,–,inactive: -26.3%
CCCc1c(C)[nH]c2ccc(C(=O)O)cc2c1=S,"inconclusive [inhibitor, partial curve]",–
CCCn1c(SCC(=O)Nc2nnc(CC)s2)nnc1-c1ccco1,"inconclusive [inhibitor, partial curve]",–
Cc1ccccc1-c1nc(CS(=O)(=O)CC(=O)Nc2cccc(C(F)(F)F)c2)c(C)o1,"inconclusive [inhibitor, partial curve]",–
Cc1ccc(CNS(=O)(=O)c2ccc(C(C)(C)C)cc2)n1C,"inconclusive [inhibitor, full curve]",–
CCOc1ccc(N(CC)S(=O)(=O)N2CCCC(C(=O)NCc3ccc(Cl)cc3)C2)cc1 (configuration not stated),–,inactive: 2.95%
N#Cc1c(N)nc(SCc2ccccc2)c(C#N)c1-c1ccco1,active: 50.1 µM,–
Cc1ccnc(NC2CCCCC2)c1,–,inactive: -1.92%
C#Cc1ccc([C@H]2C=C(C(=O)N3CCOCC3)O[C@@H](OCc3ccc(CO)cc3)C2)cc1,"inconclusive [inhibitor, partial curve]",–
CCCCN1C(=O)CN(C2CCCCCC2)C(=O)C1c1ccc(OC(C)C)c(OC)c1 (configuration not stated),"inconclusive [inhibitor, single point]",–
O=C(NCCCn1ccnc1)c1cc(-c2ccc3c(c2)OCO3)on1,–,inactive: -0.738%
COc1cccc(Nc2cc(C)c3ccccc3n2)c1,–,inactive: -1.45%
Cc1nc2c(o1)CCc1ccccc1C2N1CCN(C)CC1 (configuration not stated),"inconclusive [inhibitor, partial curve]",–
Cc1oc(-c2ccc(F)cc2)cc1-c1nn2c(-c3ccoc3C)nnc2s1,"inconclusive [inhibitor, partial curve]",–

Compound,Potency,"activity change, negative = inhibition"
CCC(=O)Nc1ccccc1C(=O)NC1CCCCC1,"inconclusive [inhibitor, full curve, poor fit]",–
Cc1ccccc1-c1noc(-c2ccccc2C(=O)O)n1,–,inactive: 8.78%
O=C(NC(Cc1ccccc1)C(=O)O)/C(=C/c1ccc(Br)cc1)NC(=O)c1ccc(Br)o1 (configuration not stated),"inconclusive [inhibitor, partial curve]",–
CCN(CCO)C(=O)CC1C(=O)NCCN1Cc1c(F)cccc1Cl (configuration not stated),"inconclusive [inhibitor, partial curve]",–
O=C(c1coc(=O)c(Br)c1)N1CCCc2ccccc21,active: 22.4 µM,–
C/C=C(\C)C(=O)N[C@@H](C)CN1C2=NC[C@H](C(C)C)N2C[C@H]1Cc1ccc(OC)cc1,active: 5.62 µM,–
Cc1nc(CN2CCN(C(=O)c3ccc(Br)cc3)CC2)cs1,"inconclusive [inhibitor, full curve, poor fit]",–
Cc1ccc(S(=O)(=O)NC(=O)c2ccc(-c3ccc(C)c4ccccc34)o2)cc1,"inconclusive [inhibitor, full curve]",–
N#CC(c1ccc(Cl)cc1)N1CCOCC1 (configuration not stated),–,inactive: -4.84%
COc1ccc(CNC(=O)Nc2ccc(OC)cc2)cc1,–,inactive: -5.46%
Cc1oc(-c2ccc(C(=O)NCc3ccc(F)cc3)cc2)nc1CS(=O)c1ccccc1 (configuration not stated),"inconclusive [inhibitor, partial curve]",–
CCN1CCCC1CNC(=O)c1cc2cc(F)ccc2[nH]1 (configuration not stated),–,inactive: -7.23%
CC(=O)Cc1nsc(NC(=O)c2ccc(COc3ccccc3)o2)n1,active: 44.7 µM,–
Cc1cc(=O)n2nc(N3CCCC3C(=O)NCCCN3CCCCC3)sc2n1 (configuration not stated),"inconclusive [inhibitor, single point]",–
CN(CC(=O)Nc1ccc(Cl)cc1)C(=O)CNC(=O)c1cccs1,–,inactive: -3.96%
Cn1c(=O)cc(OCCCC(=O)N2CCC3(CC2)OCCO3)c2ccccc21,"inconclusive [inhibitor, full curve]",–
CC(C)C(c1nnnn1CCc1ccccc1)N1CCN(C(=O)c2ccco2)CC1 (configuration not stated),"inconclusive [inhibitor, partial curve, poor fit]",–
C=CCNC(=S)N/N=C/c1ccc(C)s1,"inconclusive [inhibitor, partial curve]",–
COc1cccc(NC(=O)c2ccc3c(c2)C(=O)N(CC2CCCO2)C3=O)c1 (configuration not stated),–,inactive: -13.4%
Cc1cc(C)nc(Nc2ccc(N3CCCC3)cc2)n1,"inconclusive [inhibitor, partial curve]",–
O=C(O)c1cccc(S(=O)(=O)N2CC=C(c3ccccc3)CC2)c1,"inconclusive [inhibitor, partial curve]",–
Cc1cccc2nc(-c3ccc(N(C)C)cc3)c(Nc3ccc4c(c3)OCO4)n12,"inconclusive [inhibitor, single point]",–
O=C(NCCc1csc(-c2ccc(Cl)cc2)n1)c1ccco1,"inconclusive [inhibitor, single point]",–
O=C(c1ccccc1)C1CN(Cc2ccccc2)CCC1(O)c1ccccc1 (configuration not stated),"inconclusive [inhibitor, full curve]",–

# From PubChem BioAssay AID485364 (National Center for Advancing Translational Sciences (NCATS), 2010)
